Experiment [1] deals with GFP-RhoAN19 (UniProt P61586). Put plainly: co-IP; GFP-Trap pull-down (paper's term) of GFP-tagged RhoA constructs from lysates of transfected A375 cells (50 mM Tris-HCl pH 7.5, 150 mM NaCl, 1% Nonidet P-40, 10% glycerol, 10 mM EDTA), overnight at 4 °C; Mdmx co-transfected or endogenous; Western blot. (In general: In western blotting, separated proteins are transferred to a membrane and probed.)

Protein sequences, listed by entry. Tags and fused reporters are not part of them. Lines headed by an entry give the natural chain unless they say otherwise; changes in a name come on top. Chains listed by the source or under a name are the forms on record and can include a tag or linker.
UniProt P61586: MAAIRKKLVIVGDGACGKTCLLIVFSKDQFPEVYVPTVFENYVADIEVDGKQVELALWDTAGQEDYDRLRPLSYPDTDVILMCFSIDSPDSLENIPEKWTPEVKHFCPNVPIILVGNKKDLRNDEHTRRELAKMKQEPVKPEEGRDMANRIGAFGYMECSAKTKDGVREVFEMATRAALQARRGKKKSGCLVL
GFP-RhoAN19 (P61586, form named): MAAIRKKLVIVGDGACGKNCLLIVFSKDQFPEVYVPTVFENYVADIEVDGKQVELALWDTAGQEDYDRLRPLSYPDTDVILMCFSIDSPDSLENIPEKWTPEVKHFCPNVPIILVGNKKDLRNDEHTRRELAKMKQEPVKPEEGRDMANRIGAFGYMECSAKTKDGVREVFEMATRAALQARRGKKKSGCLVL

The target of experiment [2] is recombinant GST-RhoA (UniProt P61586). Put plainly: pull-down; recombinant GST-RhoA loaded in vitro with GDP (0.5 mM, 30 °C, 30 min) on glutathione beads, incubated with A375 cell extracts overnight at 4 °C; endogenous Mdmx detected by Western blot; only the target purified.
Experiment [3] deals with wild type GFP-RhoA (UniProt P61586). Kind of experiment: co-IP; GFP-Trap pull-down (paper's term) of GFP-tagged RhoA constructs from lysates of transfected A375 cells (50 mM Tris-HCl pH 7.5, 150 mM NaCl, 1% Nonidet P-40, 10% glycerol, 10 mM EDTA), overnight at 4 °C; Mdmx co-transfected or endogenous; Western blot.

Results are given in words; binding and its absence hold for the method and conditions named. In cells and extracts the contact can be indirect. Some results given as binding are weak or reduced against the parent protein; the word gives no strength. For some of these results: Sequences can lack the tags named with a protein.

B1: N-terminal Mdmx fragment (1–153) (domain or fragment, UniProt O15151 1-153)
chain: MTSFSTSAQCSTSDSACRISPGQINQVRPKLPLLKILHAAGAQGEMFTVKEVMHYLGQYIMVKQLYDQQEQHMVYCGGDLLGELLGRQSFSVKDPSPLYDMLRKNLVTLATATTDAAQTLALAQDHSMDIPSQDQLKQSAEESSTSRKRTTED
Regarding B1, in experiment [1], the binding result was “no binding”.

B2: triple phosphorylation Mdmx mutant S342/S367/S403A (3SA) (protein, UniProt O15151 1-490)
chain: MTSFSTSAQCSTSDSACRISPGQINQVRPKLPLLKILHAAGAQGEMFTVKEVMHYLGQYIMVKQLYDQQEQHMVYCGGDLLGELLGRQSFSVKDPSPLYDMLRKNLVTLATATTDAAQTLALAQDHSMDIPSQDQLKQSAEESSTSRKRTTEDDIPTLPTSEHKCIHSREDEDLIENLAQDETSRLDLGFEEWDVAGLPWWFLGNLRSNYTPRSNGSTDLQTNQDVGTAIVSDTTDDLWFLNESVSEQLGVGIKVEAADTEQTSEEVGKVSDKKVIEVGKNDDLEDSKSLSDDTDVEVTSEDEWQCTECKKFNSPSKRYCFRCWALRKDWYSDCSKLTHSLATSDITAIPEKENEGNDVPDCRRTIAAPVVRPKDAYIKKENSKLFDPCNSVEFLDLAHSSEAQETISSMGEQLDNLSEQRTDTENMEDCQNLLKPCSLCEKRPRDGNIIHGRTGHLVTCFHCARRLKKAGASCPICKKEIQLVIKVFIA
As to B2, in experiment [1], the binding entry is reported as “binds”.

B3: endogenous Mdmx (protein, UniProt O15151 1-490)
chain: MTSFSTSAQCSTSDSACRISPGQINQVRPKLPLLKILHAAGAQGEMFTVKEVMHYLGQYIMVKQLYDQQEQHMVYCGGDLLGELLGRQSFSVKDPSPLYDMLRKNLVTLATATTDAAQTLALAQDHSMDIPSQDQLKQSAEESSTSRKRTTEDDIPTLPTSEHKCIHSREDEDLIENLAQDETSRLDLGFEEWDVAGLPWWFLGNLRSNYTPRSNGSTDLQTNQDVGTAIVSDTTDDLWFLNESVSEQLGVGIKVEAADTEQTSEEVGKVSDKKVIEVGKNDDLEDSKSLSDDTDVEVTSEDEWQCTECKKFNSPSKRYCFRCWALRKDWYSDCSKLTHSLSTSDITAIPEKENEGNDVPDCRRTISAPVVRPKDAYIKKENSKLFDPCNSVEFLDLAHSSESQETISSMGEQLDNLSEQRTDTENMEDCQNLLKPCSLCEKRPRDGNIIHGRTGHLVTCFHCARRLKKAGASCPICKKEIQLVIKVFIA
As to B3, the binding entry in experiment [2], in experiment [1] and in experiment [3] was “binds” each time.

B4: HA-Mdmx (protein, UniProt O15151 1-490)
chain: MTSFSTSAQCSTSDSACRISPGQINQVRPKLPLLKILHAAGAQGEMFTVKEVMHYLGQYIMVKQLYDQQEQHMVYCGGDLLGELLGRQSFSVKDPSPLYDMLRKNLVTLATATTDAAQTLALAQDHSMDIPSQDQLKQSAEESSTSRKRTTEDDIPTLPTSEHKCIHSREDEDLIENLAQDETSRLDLGFEEWDVAGLPWWFLGNLRSNYTPRSNGSTDLQTNQDVGTAIVSDTTDDLWFLNESVSEQLGVGIKVEAADTEQTSEEVGKVSDKKVIEVGKNDDLEDSKSLSDDTDVEVTSEDEWQCTECKKFNSPSKRYCFRCWALRKDWYSDCSKLTHSLSTSDITAIPEKENEGNDVPDCRRTISAPVVRPKDAYIKKENSKLFDPCNSVEFLDLAHSSESQETISSMGEQLDNLSEQRTDTENMEDCQNLLKPCSLCEKRPRDGNIIHGRTGHLVTCFHCARRLKKAGASCPICKKEIQLVIKVFIA
As to B4, the binding entry in experiment [1] and in experiment [3] was “binds” throughout.

(Values after article PMC11475522.)
